Laboratory results taken from PubChem BioAssay (NCI).
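96-well plates; 48 h exposure; 5 concentrations. Endpoints by linear interpolation between flanking doses. Not reached: highest tested concentration assigned. Abbreviation: GI50, concentration required for 50% inhibition of growth. At the TGI there is no net growth.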 Square brackets hold non-standard residues; d marks the D form. Peptide text beside a SMILES is read from it. * marks the point of attachment. Boc = CC(C)(C)OC(=O)*; Lac = C[CH](O)C(=O)O; OBn = c1ccc(CO*)cc1

Tested on: NCI-H322M lung
Assay: growth of human tumour cells (NCI), 48 h

Compound	TGI [µM]	GI50 [µM]
COc1cccc(-c2nc3ccccc3c(=O)[nH]2)c1	39.1	–
CC1=NN(c2nc(N)nc(/C(C#N)=C/c3ccccc3O)n2)C(C)(C)C1	48.1	–
COc1cc2nc(-c3ccc(C(F)(F)F)cc3)cc(OCCCN3CCC(O)CC3)c2cc1OC	22.3	10.2
COc1ccc2c(c1)C1(C=N2)CCN(C(C)=O)CC1	> 100	–
Cc1nnc2n1N=C(c1ccccc1)/C(=C/c1ccc(-c3ccc(Cl)cc3)o1)S2	38.9	–
Cc1cc(=O)[nH]c(NNC(C#N)c2cccc(O)c2)n1 (configuration not stated)	> 100	–
COC1(c2ccc(Cl)cc2)SC=C(C)n2c1noc2=O (configuration not stated)	> 100	–
C=C(C)[C@@H]1CCC2=C[C@@H](OC2=O)[C@@H](C(=C)C)C2=CC(C(=O)O)=C(C1)O2	> 100	–
CC(=O)OC1COC(n2c(=S)n(-c3ccc(C)cc3)c(=O)c3ccccc32)C(OC(C)=O)C1OC(C)=O (configuration not stated)	> 100	–
C/C=C/C(C#N)(/C=C/c1ccccc1)OP1(=O)OC(c2ccccc2)C(C)N1C (configuration not stated)	36.7	–
CC1OC(OC2C(O[C@H]3CC[C@@H]4C(=CC[C@@H]5[C@@]4(C)C(=O)C[C@]4(C)[C@@H]([C@H](C)CC[C@@H](O)C(C)(C)O)CC[C@@]54C)C3(C)C)OC(CO)C(O)C2O)C(O)C(O)C1O (some centres not stated)	> 100	–
COc1cc(NC(C)c2ccc3c(c2)OCCO3)cc(OC)c1OC (configuration not stated)	> 100	–
COC(=O)Nc1nc2ccc(S(=O)c3ccccc3)cc2[nH]1 (configuration not stated)	> 100	> 100
Nc1ccc(C(=O)N/C(=C\c2ccc3c(c2)OCO3)c2nc3[nH]c(=S)[nH]c(=O)c3[nH]2)cc1	> 100	–
CC(OC(=O)C(Cc1ccccc1)NC(=O)C(Cc1ccccc1)NC(=O)OC(C)(C)C)C(=O)OCc1ccccc1 (stereo not drawn) (Boc-Phe-Phe-[Lac]-OBn; configuration not given here)	> 100	–
S=C1NCCN1	> 100	–
O=C(NC(=S)Nc1ccc(Br)cc1)c1ccc2c(c1)Sc1ccccc1S2	37.2	–
NC(CCc1nc(-c2ccc(Cl)cc2)cs1)C(=O)O (configuration not stated)	> 100	–
O=c1cc(-c2cccc(O)c2)[nH]c2cc3c(cc12)OCO3	> 100	–
Cc1cc(=O)n2[nH]c(-c3ccc(C(C)(C)C)cc3)cc2n1	> 100	18.7
COc1ccc2c(c1)CC[C@@H]1[C@@H]2CC[C@]2(C)C(=O)/C(=C/c3ccc(N(C)C)cc3)C[C@@H]12	> 100	–
O=C1N(C2CCCCC2)C(=O)N1C1CCCCC1	29	–
CO[C@]1(c2ccc([N+](=O)[O-])cc2)Oc2ccccc2C(=O)[C@@]1(Nc1ccc(C=O)cc1)OC	> 10	–
O=C(CSC(=S)N1CCCCC1)Nc1nc2c(s1)CCCC2	> 100	–
